Sequences and labels used below:
B1: LINE1-full (parent)
chain: UACGUAGGUGGUUUUCCCCUGAUAGUGCUAAGGGGGCCUGGAAGUUUGGACUGGGCAGAGCUCAACACAGCGUGGCAAAGUGGCUGUGGCUAGACUGCCUCUCUGGAUUCCUCGUCACUCAGCAGGGCAUCUCUGAGAGAAAUGCC

Read counts are not given, so values of variants with three or more changes are uncertain.

This data set covers variants of B1. Kind of data set: self-cleavage, relative activity (ratio to wild type); higher = more cleavage; in vitro, sequencing; the parent is a self-cleaving ribozyme.
For G74A U100C U104A, the self-cleavage worked out at 1.37. With A79U U130C U134A, the self-cleavage is 2.14.

Regarding A79U U130C U134C, the self-cleavage turned out to be 2.76. Under U73A A117G U119C stands 0.37; under A79G A94G U96C, 0; under G74A A78G A136G, 1.21. For A77C G135A A141G U143C, the self-cleavage is 1.11. Under G74A U87A A136G U143C stands 0.06. With A77G U87C U134A, the self-cleavage was 0. In the case of U73C U102C U134G, the self-cleavage came out at 2.3.

For U73A A77U U87C A94U U102C U104A A141U, the self-cleavage was 0.06. Consider A77G U91C A107G A129U, for which the self-cleavage is 0. For A79G U87C U109A U130C, the self-cleavage turned out to be 0. Regarding A77U U100C U143C, the self-cleavage stood at 1.75. Consider A79G A92U A138G, for which the self-cleavage was 0.32. As for U73A A78U U81A, the self-cleavage was found to be 2.68. As for A77U U112C A142G, the self-cleavage was determined as 1.03.

For A77G U109C U112A, the self-cleavage was determined as 0.46. For the variant C76U A92G A94C U115C, the self-cleavage was determined as 0.04. As for A78G U109A U115G, the self-cleavage was 0.53. For the variant A77U U112C A138G, the self-cleavage was found to be 1.49.

In the case of U81C G83A U108C A138G, the self-cleavage was 1.51. Under U81C U85C A142G stands 0.77; under U73C A77U A79G U87C C131A, 0.

Turning to G74A A107G A136G C146U, the self-cleavage worked out at 0.88. Consider U85C U104A A129G, for which the self-cleavage stood at 0.14.

For A79G U102C U104A A141G, the self-cleavage turned out to be 2.22.

Turning to U73A U115C A141G, the self-cleavage is 1.96.

As to U73A U81C A94G A117U A124U A129G U143C, the self-cleavage was 0. Regarding A78G A79G U109C, the self-cleavage came to 2.3.

As for G72U C111U U112C, the self-cleavage was found to be 1.34. In the case of G75A A77G C113U A136G it was 0.28; in that of A77G U96C U109C, 0; in that of C76U U87C A142G, 0.53. Turning to U85C A140G C146U, the self-cleavage stood at 0.13.

Take A79G U112A A136G: the self-cleavage was 2.03. As for A77U A140U C145A, the self-cleavage amounted to 1.23. Take G74A U109C U143A: the self-cleavage was found to be 0.65. In the case of A77U U115A A136G A140U it was 1.89; in that of A79G A117C A121U A140U, 2.14. On to U81G U85C U108C, for which the self-cleavage amounted to 0. With A79U U100C U119A, the self-cleavage was determined as 2.22. For the variant A79G U96C U130C A141G, the self-cleavage is 0.28. Regarding U73C A79G A136G U143A, the self-cleavage was 2.09. In the case of A78G A92G A117G it was 0; in that of A77G U85A A121U, 0.03. In the case of A77U U104C A107G, the self-cleavage is 1.79. For the variant A78G U91A C146U, the self-cleavage was found to be 0.61. In the case of U73C A94U G114A it was 0.37; in that of A77G U91C A107G, 0. For A77G C99U U130A, the self-cleavage came out at 1. Take G82A A129U G144U: the self-cleavage came to 2.1.

Regarding A77G U119C A140G, the self-cleavage turned out to be 1.47. For U85A U96C U134A G139U, the self-cleavage was found to be 0.12. In the case of C76U U104C U143C, the self-cleavage is 2.82.

As for A77G A141G G144A, the self-cleavage is 2.84. With U73A U96C U132C, the self-cleavage came to 0.06. Take A79G U119C U130C: the self-cleavage was 1.34. Regarding A79U U112C A140G, the self-cleavage was 1.21. Under U81G U115C A117C stands 2.85; under U85A U104G A136G, 0.1. As to U81A U102A A141G, the self-cleavage is 2.08.

Turning to U73A C120U A141G, the self-cleavage was 1.84. Consider A78U U130C U143A, for which the self-cleavage was determined as 2.15. In the case of A77U U85C A140G, the self-cleavage stood at 0.21. Under A77U U115C A121C stands 1.62; under A77G U81C U87C G97U U100C A142U C145U, 0. Turning to U81C A124C A141G, the self-cleavage was found to be 0.61. Turning to A78U U104A U115C, the self-cleavage was found to be 1.21. In the case of A78G G82A U100C it was 1.98. In the case of A77G U81C A94G A138G it was 0; in that of U73A A129G A138U, 1.7. Under G82A U102C A124G stands 1.82; under A77G U102C A129U, 2.36.

For the variant A79G G83A U109C, the self-cleavage worked out at 0.44. As to A78G U96C U115A, the self-cleavage was found to be 0.21.

As for G82A A107G U132A, the self-cleavage came out at 1.47. Under U81C G82A U96C U109C stands 0; under U81G U85C U108C A117U, 0.22. Regarding A77C U85A U115A, the self-cleavage was determined as 0.04. In the case of A79G C101U U112G C113U, the self-cleavage was determined as 0.37. Turning to A79U U100C U143A, the self-cleavage stood at 2.73. With U81C U119C C123U, the self-cleavage came out at 1.97.

With U85C G89A U109C, the self-cleavage was 0.03. For the variant U73A U119A A138G, the self-cleavage was determined as 1.36.

Take A77G U119C A138G: the self-cleavage is 1.75. Regarding G74A A78G U96C U109A, the self-cleavage amounted to 0.05. A78G A79G A124G A138G: the self-cleavage turned out to be 0.95. In the case of U73C A79U U81C, the self-cleavage was 1.66.

Turning to A78G A94G C99U, the self-cleavage was 0.17. In the case of A77G U81A A94G, the self-cleavage worked out at 1.6. For the variant U85A A121G A124U A129U, the self-cleavage was found to be 0.1.

G72U A78G A136U: the self-cleavage was 1.27. As for A79C U81C U96A, the self-cleavage was found to be 0.05. In the case of A78G U87A U130C A140G it was 0.12; in that of A79U C84U U87C C118G, 0.04.

In the case of G83U A121U U132C, the self-cleavage came out at 0.54. Turning to A79G U102C A138G, the self-cleavage stood at 0.71. As to U73A A78G U85C A107G, the self-cleavage turned out to be 0. G72A U112C A136G: the self-cleavage was 1.3.

As for G83A U108C A121U C131U U134C A141G, the self-cleavage came out at 2.4. For G72A U87C U102C U108C A138G, the self-cleavage came to 0.32. Under U81A A94G U119C U130C stands 0. In the case of U81C A94G G97A A136G it was 0.07; in that of A77U U109C A141G, 0.92. Consider G83A A117G U119A, for which the self-cleavage turned out to be 1.12.

Consider U73A U96A U102A A142G, for which the self-cleavage was 0.02.

U85C U102C C113U: the self-cleavage came to 0.22.

As for A78U C84U A138G A140G, the self-cleavage amounted to 0.22. Take A77U A79G U85G A107G A140G: the self-cleavage came out at 0. Consider U81A U91A A136C, for which the self-cleavage stood at 0.79. As for C76U A124U U143C, the self-cleavage is 1.48. In the case of U85C A129U U134C, the self-cleavage came out at 0.15. With A79G G86A A94G U100C A129G A142G, the self-cleavage amounted to 0.3. Under A78G U100C U102G U108A stands 0. With G74U A92G U108C A124U, the self-cleavage turned out to be 0.14. As for U73G A79G U85A A92G U143A, the self-cleavage turned out to be 0. With U81C A94G A107G A121U G127A, the self-cleavage turned out to be 0.95. Under G74A G82A A124U stands 1.99; under G82A C84U A107G U134C A142G, 0.56; under C84U U108C A140U, 0.09. Turning to A78G G97A C103U C113U A142G, the self-cleavage is 0.07. For G72U A79U U102C, the self-cleavage amounted to 1.31.

Consider A77U U109A U132C A136G, for which the self-cleavage is 1.01. Under A78G U100C U143C stands 2.57; under A77U A79G U134C, 1.04; under A78G U91A A140U, 0.96. Under C76U A117G A142G stands 2.25.

As to C84U A129U U132C A140G, the self-cleavage is 0.13.

As for U85C G86A U96C U119A A141G, the self-cleavage was found to be 0.08. A77G U109C C118A C120U: the self-cleavage was 1.99.

For the variant A77G U96G U109C, the self-cleavage worked out at 0.

In the case of A79G U87A A141G, the self-cleavage came to 0.09. Under U73G U81A A142G stands 1.92; under A77G U100A A107U, 1.92; under G72A U96C U134C, 0.05. Regarding A77G U96G A142U, the self-cleavage came out at 0.11.

Take U85C A107G U108A A142C: the self-cleavage was 0.34.

On to U85A A124U U130C U132A, for which the self-cleavage amounted to 0.11. For U73C U104C U132C, the self-cleavage came to 1.84. In the case of A77G A94U A121U U132C A136G, the self-cleavage was 0.74. Regarding A78G U96A U115C A140C, the self-cleavage was determined as 0.06. In the case of A79G A129G U132C it was 2.16; in that of U73A U108C A140U, 2.19; in that of A77G U104A A136G, 2.52.

For U73C C84A U119C A124C, the self-cleavage was found to be 0.47. For C84U U91C U102C, the self-cleavage came to 0.18. In the case of A77G A78G C103A, the self-cleavage came out at 2.9.

Turning to A77G A121G A140G, the self-cleavage came out at 1.78. With U81A A124U U143C, the self-cleavage stood at 2.2. As to A78G U115C G122A, the self-cleavage turned out to be 0. For A78G A79U U85C U100C, the self-cleavage was found to be 0.43. As for A78G U81A U119C A142G, the self-cleavage came to 0.54. In the case of U73A U85C U102C U115C G127C, the self-cleavage amounted to 0.

As for U73C A107U G137U, the self-cleavage amounted to 2.02. Turning to U85A A94G A121G U130C A138G, the self-cleavage was 0. A79G U85G U132C: the self-cleavage was 0.31. Consider G80A U115C U143C, for which the self-cleavage was 2.69.

As to C84U U87C C103U U104C U130C G135A A136U, the self-cleavage stood at 0.06. As to U81C G89C A138G, the self-cleavage turned out to be 0.04. For A79G U96C A138G A141G, the self-cleavage was found to be 0.61. Under U85A U87C A129G stands 0.08; under A79G U100C C103A, 0. Take A78G G93U C131U: the self-cleavage amounted to 0.03.

For the variant U73C U130C A142G, the self-cleavage was 0.71.

On to A77U U119A A129U, for which the self-cleavage is 0.68. Take U73A U81A U134C: the self-cleavage came out at 0.47.

The values above are taken from the RNAGym collection of RNA variant scans (doi:10.7554/elife.90254).
